Assay results taken from PubChem BioAssay AID2675 (National Center for Advancing Translational Sciences (NCATS), 2010).
Screen size: about 280,000 compounds; about 100 (0.036%) were called active. Inconclusive means that the source gave no clear call. Such entries were picked first, then a sample of the others. The call rests on the fitted dose curve; in most records, active means well fitted inhibition curve with a large enough effect in the signal ratio, with a control signal flat (not every such curve was filed as active); inconclusive means small, poorly fitted or top-dose-only effect, or effect the other way, or a change in a side signal; inactive means no such curve, though single readings can be large or run the other way; the % refers to the signal ratio. Potencies of inconclusive entries are doubtful fits and often do not repeat. “Side channel” marks fits to a control or component signal instead of the main read-out.

The compounds below were run against Muscleblind-like protein 1 (Homo sapiens) (UniProt Q9NR56) (assay: qHTS Assay for Inhibitors of MBNL1-poly(CUG) RNA binding). Details: TR-FRET MBNL1-His/biotin-(CUG)12 binding, 665/545 ratio; series mostly up to 57.5 µM.
Sequence of UniProt Q9NR56 (Q9NR56 whole entry, looked up): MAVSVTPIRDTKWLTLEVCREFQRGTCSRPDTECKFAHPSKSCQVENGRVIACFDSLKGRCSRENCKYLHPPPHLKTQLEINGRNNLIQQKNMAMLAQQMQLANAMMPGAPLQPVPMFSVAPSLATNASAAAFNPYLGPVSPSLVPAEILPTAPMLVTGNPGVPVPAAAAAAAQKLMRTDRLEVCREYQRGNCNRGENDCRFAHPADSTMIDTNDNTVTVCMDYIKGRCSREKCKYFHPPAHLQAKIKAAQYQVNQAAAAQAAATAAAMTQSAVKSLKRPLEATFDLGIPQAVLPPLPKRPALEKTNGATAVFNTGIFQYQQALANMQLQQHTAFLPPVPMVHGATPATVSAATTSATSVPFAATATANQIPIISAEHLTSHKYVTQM
Procedure, shortened: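 Compound titration spanned 92 nM–58 uM against the MBNL1-His/biotin-(CUG)12 complex. After 60 min at room temperature with 5 nM streptavidin-XL665 and 0.055 ng/ul terbium anti-His, ratiometric 665/545 nm emission (Ex 340 nm) normalized to controls.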
Potency means the concentration at half of the fitted maximal effect; tags describe the fitted curve by direction and shape or compound fluorescence and quenching.

Row | SMILES | Potency
1 | COc1ccc([N+](=O)[O-])cc1NC(=O)CSc1ccccc1 | inconclusive: 14.1 µM [quencher, side channel, partial curve]
2 | CC1=NN(c2ccc([N+](=O)[O-])cc2)C(=O)/C1=C\N(C)C | inconclusive: 11.2 µM [quencher, side channel, partial curve]
3 | COc1ccc(N2CCN(CCCn3c(=S)[nH]c4ccccc4c3=O)CC2)cc1 | inactive
4 | Cc1c(C(C)(C)C)sc(=NC(=O)c2ccccc2O)n1C | inconclusive: 3.98 µM [fluorescent, side channel, single point]
5 | NC1=NC(=O)C2(COC(c3cccc([N+](=O)[O-])c3)OC2)S1 (stereo not drawn) | inconclusive: 7.08 µM [quencher, side channel, partial curve]
6 | CC(=O)Nc1ccc(NC(=O)c2ccccc2S(=O)(=O)c2ccccc2[N+](=O)[O-])cc1 | inconclusive: 22.4 µM [quencher, side channel, partial curve]
7 | COC(=O)NNC(=O)c1ccc(C)c(Br)c1 | inconclusive: 158 µM [inhibitor, partial curve, poor fit]
8 | CCc1ccccc1N1C(=O)c2cccc3c(N4CCOCC4)c([N+](=O)[O-])cc(c23)C1=O | inconclusive: 12.6 µM [quencher, side channel, partial curve]
9 | O=C(O)c1cccc(Cn2c(Cl)c(/C=N/NC(=O)c3ccco3)sc2=O)c1 | inconclusive: 14.1 µM [quencher, partial curve]
10 | CSc1nc2nccc(-c3ccc(-c4ccccc4)cc3)n2n1 | inconclusive: 14.1 µM [quencher, side channel, partial curve]
11 | O=[N+]([O-])c1ccc(S(=O)(=O)NCCc2ccncc2)cc1 | inconclusive: 25.1 µM [quencher, side channel, partial curve]
12 | Cn1c(COc2ccc([N+](=O)[O-])cc2)nnc1SCC(=O)NCC1CCCO1 (stereo not drawn) | inconclusive: 14.1 µM [quencher, side channel, partial curve]
13 | Cc1ccc2nc3c(cc(C(=O)NCC4CCCO4)c(=N)n3C3CCCC3)c(=O)n2c1 (stereo not drawn) | inconclusive: 3.16 µM [quencher, side channel, full curve]
14 | N#C/C(=C\c1cccc(O)c1)c1nc2ccccc2o1 | inconclusive: 3.98 µM [quencher, side channel, single point]
15 | Cc1ccc(C)c(NC(=S)NNC(=O)c2csc3c2CCCC3)c1 | inactive
16 | CC(=O)NCCC(=O)N1CCCC(C(=O)c2ccc3c4c(cccc24)CC3)C1 (stereo not drawn) | inconclusive: 15.8 µM [quencher, side channel, partial curve]
17 | Nc1cc(-c2ccncc2)c[nH]c1=O | inconclusive: 14.1 µM [quencher, side channel, partial curve]
18 | O=C(NC1CCCCC1)N1CCN(c2ccc([N+](=O)[O-])cc2)CC1 | inconclusive: 25.1 µM [quencher, side channel, partial curve]
19 | CCCN(CCC)c1nc(-c2ccccn2)nc2ccccc12 | inactive
20 | O=C(NCc1ccccc1)C1CCCN1C(=O)Nc1ccccc1[N+](=O)[O-] (stereo not drawn) | inconclusive: 10 µM [quencher, side channel, partial curve]

Row | SMILES | Potency
21 | O=C(/C=C/Nc1ccccc1O)c1ccco1 | inconclusive: 28.2 µM [quencher, side channel, partial curve]
22 | CC(C)Cn1c(N)c(C(=O)COC(=O)c2ccc([N+](=O)[O-])o2)c(=O)n(C)c1=O | inconclusive: 14.1 µM [quencher, side channel, partial curve]
23 | CCOC(=O)c1ccc(N2NC(=O)/C(=C/c3ccc(OC(=O)c4ccco4)c(OC)c3)C2=O)cc1 | inactive
24 | O=C1c2oc3ccc(Cl)cc3c(=O)c2C(c2ccccn2)N1CCCN1CCOCC1 (stereo not drawn) | inconclusive: 22.4 µM [quencher, side channel, single point]
25 | O=C(Nc1ncc(Cc2cccc(Cl)c2Cl)s1)c1ccc([N+](=O)[O-])cc1 | inactive
26 | Nc1ccc(C(=O)N/N=C/c2cccc(Oc3ccccc3)c2)cc1 | inconclusive: 39.8 µM [quencher, side channel, single point]
27 | COc1ccc(Oc2cc(NN3CCCCC3)c([N+](=O)[O-])cc2[N+](=O)[O-])cc1OC | inconclusive: 20 µM [quencher, side channel, partial curve]
28 | CC(C)c1ccc(/C=C2\SC(N3CCCC3)=NC2=O)cc1 | inconclusive: 17.8 µM [quencher, side channel, partial curve]
29 | CC1(C)CC(=O)C(N=Nc2cccc(F)c2C#N)=C(O)C1 | inconclusive: 3.98 µM [quencher, side channel, partial curve]
30 | COc1ccc(-n2nc(C(=O)NCC(=O)N3CCN(c4ccccc4F)CC3)c3ccccc3c2=O)cc1 | inconclusive: 39.8 µM [fluorescent, side channel, single point]
31 | Cc1cc(C)nc(N/N=C/c2c(CO)cnc(C)c2O)n1 | inconclusive: 20 µM [quencher, side channel, partial curve]
32 | O=C(O)CCn1cc(/C=C2/NC(=S)N(c3ccccc3)C2=O)c(-c2ccccc2)n1 | inconclusive: 10 µM [quencher, partial curve]
33 | O=C(c1cccc([N+](=O)[O-])c1)c1cc2ccccc2o1 | inconclusive: 0.501 µM [quencher, side channel, partial curve]
34 | CCNc1nc(NCC)nc(SCCOC(=O)c2ccccc2)n1 | inconclusive: 7.08 µM [quencher, side channel, full curve, poor fit]
35 | Cn1nccc1/C=C(/C#N)S(=O)(=O)c1ccccc1 | inactive
36 | Cc1ccc2c(CN(C)Cc3cccc(Cl)c3)cc(=O)oc2c1C | inconclusive: 0.158 µM [quencher, full curve]
37 | O=C(Nc1nc2c(F)cccc2s1)c1ccc([N+](=O)[O-])o1 | inconclusive: 1.78 µM [quencher, side channel, full curve]
38 | COc1ccc(CN(CC(=O)NCC2CCCO2)C(=O)CCC(=O)Nc2cc(C)on2)cc1 (stereo not drawn) | inconclusive: 158 µM [inhibitor, single point]
39 | Cc1ccc2cccc(S(=O)(=O)N3CCN(c4ccccc4F)CC3)c2n1 | inconclusive: 20 µM [fluorescent, side channel, partial curve, poor fit]
40 | Cc1ccccc1NC(=O)c1cccc(Cn2cc(Br)c([N+](=O)[O-])n2)c1 | inconclusive: 20 µM [quencher, side channel, partial curve]

Row | SMILES | Potency
41 | COc1ccc(OC)c(C(=O)CSc2nccc(-c3ccc(Br)cc3)n2)c1 | inconclusive: 8.91 µM [quencher, side channel, single point]
42 | Cc1ccc(OCC(=O)NC(C)c2ccccc2)c([N+](=O)[O-])n1 (stereo not drawn) | inconclusive: 31.6 µM [quencher, side channel, single point]
43 | O=C(CNCc1ccccc1)Nc1cccc(Cl)c1Cl | inactive
44 | COc1ccc(-c2cc(C(=O)Nc3ccc(OC)cc3OC)no2)cc1 | inactive
45 | O=C(Nc1ccc([N+](=O)[O-])cc1)N1CCc2ccccc2C1 | inconclusive: 15.8 µM [quencher, side channel, partial curve]
46 | COCCCN1C(=O)c2ccc(C(=O)OCC(=O)NCc3ccccc3OC)cc2C1=O | inconclusive: 6.31 µM [quencher, side channel, partial curve]
47 | COc1ccc(C(=O)NC(C)c2ccc(-n3ccnc3)cc2)c(OC)c1OC (stereo not drawn) | inconclusive: 2.82 µM [quencher, side channel, full curve]
48 | COc1cc([N+](=O)[O-])ccc1NC(=O)NCCCN1CCCC1=O | inconclusive: 17.8 µM [quencher, side channel, partial curve]
49 | COc1ccc(-n2c(O)c(Cc3ccccc3)c(=O)n3nc(-c4ccccc4)c(=O)cc23)cc1 | inconclusive: 0.631 µM [quencher, side channel, full curve, poor fit]
50 | COc1ccccc1C(=O)NCC(=O)N=Nc1c(O)n(C(C)C)c2ccccc12 | inconclusive: 11.2 µM [quencher, side channel, partial curve]
51 | COC(=O)c1sc(-c2ccccc2)cc1NC(C)=O | inconclusive: 17.8 µM [quencher, side channel, partial curve]
52 | Nc1nnc(CC(=O)N/N=C\c2ccc(-c3cccc(Cl)c3)o2)s1 | inconclusive: 15.8 µM [quencher, side channel, partial curve]
53 | O=C(/C(=C\c1ccccc1)c1nc2ccccc2[nH]1)c1ccc(Cl)cc1 | inactive
54 | O=C(COC(=O)/C=C/c1ccccc1[N+](=O)[O-])NCC(F)(F)F | inconclusive: 12.6 µM [quencher, side channel, partial curve]
55 | COc1cc(/C=C/C(=O)OCC(=O)NCCc2ccccc2)ccc1OC(F)F | inconclusive: 1.12 µM [quencher, side channel, full curve]
56 | CCC(C)NC(=O)C(NS(=O)(=O)c1cccc2nsnc12)c1ccccc1 (stereo not drawn) | inconclusive: 14.1 µM [quencher, side channel, partial curve]
57 | Cc1cc(OCCN2CCC(Cc3ccccc3)CC2)ccc1[N+](=O)[O-] | inactive
58 | O=C1CC(=O)N(c2cccc(F)c2)N1 | inactive
